The list shows a part of the results.

The test system of the test is HSkMC (human skeletal muscle cells). The test is described as follows: cytotoxicity call (relative viability < 0.9). The note with it: 10 µM.
For `O[C@@H]1[C@@H](O)[C@H](O)OC[C@H]1O`, the cytotoxicity call was “inactive”.

`Cn1cnc([N+](=O)[O-])c1Cl`: the cytotoxicity call was “inactive”.

As to `O=C(C[C@H]1CC[C@H]2[C@@H](COC[C@H](O)CN2C(=O)c2ccccc2F)O1)N1CCN(c2ccccc2)CC1`, the cytotoxicity call is “inactive”.

With `COc1ccccc1NC(=O)N(C)C[C@@H]1Oc2cc(Br)ccc2S(=O)(=O)N([C@H](C)CO)C[C@@H]1C`, the cytotoxicity call is “inactive”.

For `C[N+](C)(C)CCCC[C@@H]1NC(=O)[C@@H]2C[C@H](C(=O)NCc3ccc(F)cc3)[C@H](c3cccc(OCCO)c3)N2C1=O`, the cytotoxicity call was “inactive”.

`COc1nc(N)nc2nc[nH]c12`: the cytotoxicity call was “inactive”.

On to `Cc1noc(C)c1NC(=O)Nc1ccc2c(c1)C(=O)N([C@H](C)CO)C[C@H](C)[C@H](CN(C)C(=O)Nc1c(C)noc1C)OCCCC[C@H](C)O2`, for which the cytotoxicity call is “inactive”.

In the case of `C[C@@H]1CN([C@@H](C)CO)C(=O)c2cccc(NC(=O)NC3CCCCC3)c2O[C@@H]1CN(C)S(C)(=O)=O`, the cytotoxicity call was “inactive”.

`Cc1ccc(-c2ccc3c(c2)O[C@@H](CN(C)C(=O)NC(C)C)[C@@H](C)CN([C@@H](C)CO)S3(=O)=O)cc1`: the cytotoxicity call is “inactive”.

On to `C=C1C(=O)C(O)[C@@H]2O[C@@H]2C1=O` (stereo not given in full), for which the cytotoxicity call is “inactive”.

Consider `COCCNC(=O)NC(=O)COC(=O)c1cccn1C`, for which the cytotoxicity call is “inactive”.

Turning to `C[C@@H]1CN([C@@H](C)CO)C(=O)c2cc(C#CCc3ccccc3)cnc2O[C@@H]1CN(C)CC1CCOCC1`, the cytotoxicity call is “inactive”.

In the case of `COc1ccc(CN(C)C[C@H]2OCCCC[C@@H](C)Oc3ccc(NC(=O)Cc4ccccc4)cc3C(=O)N([C@H](C)CO)C[C@H]2C)cc1`, the cytotoxicity call was “inactive”.

Take `C[C@@H]1CN([C@H](C)CO)C(=O)c2cc(NC(=O)CCC(F)(F)F)ccc2O[C@@H](C)CCCCO[C@H]1CN(C)C(=O)Nc1ccc2c(c1)OCO2`: the cytotoxicity call was “inactive”.

For the molecule `C[C@@H]1CCCCO[C@@H](CN(C)S(=O)(=O)c2ccccc2)[C@H](C)CN([C@@H](C)CO)C(=O)c2cc(NC(=O)Nc3cccc4ccccc34)ccc2O1`, the cytotoxicity call is “inactive”.

In the case of `NCc1cnn(-c2ccc(F)cc2)c1`, the cytotoxicity call is “inactive”.

For `CC(C)c1ccccc1OC[C@@H](O)CN`, the cytotoxicity call was “inactive”.

With `CCCC[C@@H](C#N)c1ccc(F)cn1`, the cytotoxicity call was “inactive”.

As to `NC(N)=O`, the cytotoxicity call is “inactive”.

Turning to `C[C@@H]1CN([C@@H](C)CO)C(=O)c2cc(NS(=O)(=O)c3ccc(F)cc3)ccc2O[C@@H]1CN(C)S(=O)(=O)c1ccc(F)cc1`, the cytotoxicity call is “inactive”.

In the case of `Cc1noc(C)c1NC(=O)N(C)C[C@@H]1OCCCC[C@H](C)Oc2ccc(NC(=O)Nc3cccc4ccccc34)cc2C(=O)N([C@@H](C)CO)C[C@H]1C`, the cytotoxicity call was “inactive”.

Regarding `CC(C)NC(=O)Nc1ccc2c(c1)C(=O)N([C@@H](C)CO)C[C@@H](C)[C@H](CN(C)Cc1ccccc1)OCCCC[C@H](C)O2`, the cytotoxicity call was “inactive”.

As to `COc1ccc(NC(=O)Nc2ccc3c(c2)C(=O)N([C@H](C)CO)C[C@H](C)[C@H](CN(C)Cc2ccc(C(=O)Nc4ccccc4N)cc2)O3)cc1`, the cytotoxicity call is “inactive”.

Regarding `CO[C@@H]1CN(C)C(=O)c2ccc(NC(=O)C3CC3)cc2OC[C@@H](C)N(C(=O)CN2CCOCC2)C[C@@H]1C`, the cytotoxicity call was “inactive”.

Consider `CO[C@@H]1CN(C)C(=O)c2ccc(NC(=O)c3ccc(F)cc3)cc2OC[C@@H](C)N(C(=O)CN(C)C)C[C@@H]1C`, for which the cytotoxicity call was “inactive”.

Regarding `C[C@@H]1CN([C@H](C)CO)S(=O)(=O)c2ccc(C#Cc3ccncc3)cc2O[C@H]1CN(C)S(=O)(=O)c1ccccc1`, the cytotoxicity call is “inactive”.

As to `C[C@H](CO)N1C[C@H](C)[C@H](CN(C)Cc2ccncc2)Oc2ccc(NC(=O)Nc3cccc4ccccc34)cc2C1=O`, the cytotoxicity call is “inactive”.

For `C[C@H](CO)N1C[C@H](C)[C@H](CN(C)C(=O)Nc2ccc(F)cc2)OCCCC[C@H](C)Oc2ccc(NC(=O)C3CC3)cc2C1=O`, the cytotoxicity call is “inactive”.

As to `C[C@H](CO)N1C[C@H](C)[C@H](CN(C)S(=O)(=O)c2cn(C)cn2)Oc2ccc(N(C)C)cc2CC1=O`, the cytotoxicity call is “inactive”.

Turning to `O=C(Cn1nncc1COc1ccc2ccccc2c1)NS(=O)(=O)c1ccccc1OC(F)(F)F`, the cytotoxicity call is “inactive”.

`CCS(=O)(=O)N1CC[C@]2(CC1)CN([C@H](CO)c1c2c2ccc(cc2n1C)OC)C(=O)c1ccc(cc1)F`: the cytotoxicity call is “inactive”.

Consider `C[C@@H]1CCCCO[C@@H](CN(C)Cc2ccc(Cl)c(Cl)c2)[C@H](C)CN([C@@H](C)CO)C(=O)c2cc(NC(=O)Nc3cccc4ccccc34)ccc2O1`, for which the cytotoxicity call was “inactive”.

With `Cc1ccc(S(=O)(=O)Nc2ccc3c(c2)C(=O)N([C@@H](C)CO)C[C@H](C)[C@H](CN(C)C(=O)Cc2ccccc2)OCCCC[C@@H](C)O3)cc1`, the cytotoxicity call is “inactive”.

For the molecule `Cc1ccc(S(=O)(=O)Nc2ccc3c(c2)C(=O)N([C@H](C)CO)C[C@H](C)[C@@H](CN(C)Cc2ccc(C(F)(F)F)cc2)OCCCC[C@H](C)O3)cc1`, the cytotoxicity call is “inactive”.

For `COCC(=O)N(C)C[C@H]1Oc2cc(C#CC(C)(C)O)ccc2S(=O)(=O)N([C@H](C)CO)C[C@H]1C`, the cytotoxicity call is “inactive”.

Regarding `Cc1ccc(S(=O)(=O)Nc2ccc3c(c2)C(=O)N([C@@H](C)CO)C[C@@H](C)[C@H](CN(C)CC2CCCCC2)OCCCC[C@H](C)O3)cc1`, the cytotoxicity call is “inactive”.

As for `CCCN(C)C[C@@H]1OCCCC[C@@H](C)Oc2ccc(NC(=O)Nc3ccc(C(F)(F)F)cc3)cc2C(=O)N([C@H](C)CO)C[C@@H]1C`, the cytotoxicity call was “inactive”.

Consider `C[C@H](CO)N1C[C@H](C)[C@@H](CN(C)C(=O)Nc2ccc3c(c2)OCO3)Oc2ccc(NC(=O)C3CC3)cc2C1=O`, for which the cytotoxicity call is “inactive”.

With `COc1ccc2c3c([nH]c2c1)[C@@H](CO)N(C[C@]13CCN(CC1)Cc1ccccc1OC)C(=O)Nc1ccc(cc1)F`, the cytotoxicity call was “inactive”.

For the molecule `C[C@H](CO)N1C[C@H](C)[C@@H](CN(C)Cc2ccc(O)cc2)OCc2ccccc2-c2c(n(C)c3ccccc23)C1=O`, the cytotoxicity call is “inactive”.

The values above are taken from the antibiotic and cytotoxicity screens of Wong et al. (2023).
